# Test results published in ChEMBL document CHEMBL4888484, “Replenishing the malaria drug discovery pipeline: Screening and hit evaluation of the MMV Hit Generation Library 1 (HGL1) against asexual blood stage Plasmodium falciparum ,using a nano luciferase reporter read-out” (2022).
# Hit rate of the full screen: of about 150,000 compounds, about 540 (0.36%) showed an effect of 50% or more. The list shows a part of the results.
# Tested on: Plasmodium falciparum
# Assay: Primary screen in NF54 nanoGlo assay, in single point, at 2uM, 72h; a lower Z score goes with more inhibition
# Assay type: functional, Erythrocyte
# Conditions: timepoint 72 hour
Compound,% Inhibition [%],Z score
Cc1cncc(=O)n1C[C@H](O)COC(C)C,-7,0.84
CCCN1C(=O)CC[C@@H]2CN(C(=O)c3cccc4ccccc34)CC[C@@H]21,9,-1.54
O=C(NCc1cc2n(n1)CCCN(Cc1cccc(Cl)c1F)C2)C1CCC1,-12,2.22
CC[C@@H](Cn1ccnc1)NS(=O)(=O)N1CCOCC1,-9,1.65
CCN(C(C)=O)c1nc(CN2CCc3sccc3C2)cs1,-13,1.81
CCCC(C(=O)NCC1CCCN1CC)c1ccccn1 (stereo not given),-9,1.17
CC(C)c1ccc(C2c3[nH]c4ccccc4c3C[C@H]3C(=O)N(c4ccccc4C(=O)N[C@H](C)C(=O)O)C(=O)N23)cc1 (stereo not given in full),-6,1.01
CCCOc1cc(C)ccc1CN[C@H]1CCCS(=O)(=O)C1,11,-2.03
CCCNC(=O)C1CCN(C(=O)c2cccc3[nH]ncc23)CC1,-1,0.23
c1ccc2c(c1)OCCN2Cc1cccc2cccnc12,-5,0.43
C[C@H](Oc1ccccc1)C(=O)N1CCC(CCC(=O)Nc2ccccc2)CC1,-13,1.83
Cn1c(C2CC2)nc2cc(CNc3ccc(C#N)cn3)ccc21,-6,1.2
Cc1ccc(Cl)cc1NC(=O)Cn1nc2c(Oc3ccccc3C)nccn2c1=O,-11,1.07
C=CCCC(=O)N(C1CCCCC1)[C@H]1CCS(=O)(=O)C1,-15,2.03
O=C(c1ccco1)N1CCOC2CCCCC21 (stereo not given),5,-0.62
CCCN(C[C@H]1CCCCO1)C(=O)Nc1ccc(C)cn1,-7,1.02
Cc1ccc2c(c1)n(Cc1ccc(Cl)cc1)c(=O)c1nc(C(=O)Nc3c(C)cccc3C)nn12,7,-0.8
CCNC(=O)Nc1ccc2c(c1)CN(S(=O)(=O)c1c(C)noc1C)CCO2,-9,1.76
CS(=O)(=O)c1ccc(CNC(=O)[C@H]2CC[C@H](C)CC2)s1,29,-3.33
COc1ccc(Cl)cc1NC(=O)N1CCN(c2cccnc2)C(=O)C1,16,-2.08
Cc1cc(=O)c(C(=O)N(C)Cc2ccco2)c(Cc2cccc(F)c2)n1CCCN1CCOCC1,2,-0.28
NC(=O)C[C@H]1CCN(c2nc(-c3ccccn3)nc3c2CCC3)C1,-8,1.56

Compound,% Inhibition [%],Z score
Cc1ccnc(NC(=O)CC(C)(C)C)c1,-2,0.27
O=S1(=O)CC[C@@]2(CN(c3ncnc4ccsc34)CCO2)C1,3,-0.62
O=C(NCc1cccnc1)c1cccc(S(=O)(=O)N2CCCCC2)c1,-10,1.56
Cc1ccc(Cc2nnc(NC(=O)Cc3ccccc3Cl)o2)c(C)c1,-13,1.44
CCCc1cc(C(=O)N2CC(=O)NC3CCCCC32)[nH]n1 (stereo not given),26,-2.94
CCCc1nc(CNC(=O)c2cncc(F)c2)cs1,-4,0.54
Clc1ccc(CNCCc2c[nH]cn2)cc1,36,-5.15
O=C(Cn1cnc2c(-c3ccc(F)cc3)nsc2c1=O)NCCc1ccc(Cl)cc1,-1,0.13
Cc1ocnc1C(=O)NCc1ccc(N2CCC[C@H](C)C2)c(Cl)c1,-5,0.61
Cc1[nH]c(=O)c(C#N)c(C)c1CCC(=O)N1CCC[C@@H]1Cn1ccnc1,-6,1.12
O=C(Nc1ccc(N2CCOCC2)nc1)c1cc(C2CC2)nc2ccccc12,-5,0.58
CC(CNC(=O)C(C)N1C(=O)CCC1=O)COCc1ccccc1 (stereo not given),-5,0.63
O=C1CN(C(=O)Cc2c(F)cccc2Cl)C2(CCCC2)CN1,34,-4.65
C=CCC1(N(Cc2ccccc2)C(C)=O)CCCC1,27,-3.01
COc1ccc2c(c1)OC(C)CN(CCC(=O)N[C@H]1CCCCNC1=O)C2 (stereo not given in full),0,0.05
C[C@@]1(C(=O)NC2CCCCC2)CCC(=O)N1Cc1ccc2c(c1)OCO2,-6,0.7
COc1ccc(N[C@H]2CCCN(C(=O)C3(N4CCCC4)CCCC3)C2)cc1OC,-12,1.85
COc1ccc(N2C(=O)CN(C(=O)c3ccc(F)cc3F)CC23CCCC3)cc1,12,-2.06
Cc1nn(C(C)C)c(C)c1NCc1cscn1,-4,0.43
CC(C)N1CCNC(=O)[C@@H]1Cc1nc(-c2ccco2)n[nH]1,-6,0.62
CCCN(CC(=O)Nc1ccc(F)c(F)c1F)C(=O)Cc1ccc(OC)c(S(=O)(=O)N2CCOCC2)c1,-1,0.2
Cc1cc(C)c(-n2cccn2)c(CN2CCC(=O)NC[C@@H]2C)c1,-6,0.92

Compound,% Inhibition [%],Z score
O=C(Cc1ccc(O)cc1)N1CCC([C@@H](O)CCc2ccccc2)CC1,-4,0.72
Cc1nn(C)c(C)c1S(=O)(=O)NC(=O)c1csc(C)c1C,-8,1.52
CCO[C@@H](C)C(=O)Nc1n[nH]c(Cc2cccc(F)c2)n1,31,-4.12
O=C(NCCNc1ncccn1)c1ccco1,-8,1.21
O=C(CCC1CCCC1)N1CC[C@@H](n2c(=O)[nH]c3cccnc32)C1,-14,1.8
O=C(NC1CCCc2ccccc21)C1CCc2[nH]cnc2C1 (stereo not given),-17,2.84
CCOC(=O)C1CCN(C(=O)c2nn(-c3ccc(OC)cc3)c(=O)n(Cc3ccc(C(F)(F)F)cc3)c2=O)CC1,3,-0.45
CCC1CN(C(=O)c2cc(C(=O)OC)on2)CCC1c1ccccc1 (stereo not given),5,-0.79
Cn1cc(C(=O)N2CCCC[C@H](c3ccccc3)C2)nn1,-14,2.11
CC1(C)OC(=O)N(CC(O)c2ccccc2)C1(C)O (stereo not given),7,-0.77
Cc1cc(C(=O)NCCc2ncc[nH]2)cc(Cl)c1Br,8,-1.36
CCc1ocnc1C(=O)N[C@H]1CC(=O)N(CCCc2ccccc2)C1,6,-0.88
Cc1ccc(NC(=O)CN2C[C@@H]3CCC[C@H](C2)C(=O)N3)cc1,1,-0.17
CC(C)[C@H](NC(=O)c1cncc(F)c1)c1ncnn1C,-15,1.96
CCc1nnc(CN(C(=O)c2oc3cc(OC)ccc3c2C)C(C)C)o1,-8,1.58
CC(C)c1ccoc1C(=O)N1CCS(=O)(=O)c2ccccc2C1,-3,0.51
CCCCCN(CCO)C(=O)CC[C@H]1CCCCN1C,-4,0.56
NS(=O)(=O)Cc1noc(C2CC2)n1,-1,0.12
COC(=O)[C@H]1CN(c2ccccn2)C[C@@H]1c1ccc(F)cc1F,-10,1.56
CC(C)CCCCN1CC[C@@](NC(=O)OC(C)(C)C)(C(=O)O)C1,0,0
COc1cnc(CN(CCC2=CCCCC2)Cc2ccc(F)cc2)cc1O,-11,1.6
CC(C(=O)N1CCCc2ccccc21)N1CCCC(S(C)(=O)=O)CC1 (stereo not given),-15,2.01

Compound,% Inhibition [%],Z score
COC1(c2nc(-c3cccs3)no2)CCOCC1,-3,0.64
Cn1ncc(CNC(=O)N[C@@H]2CCc3cc(F)ccc32)n1,-12,2.22
O=C(CNc1ccc(C2CC2)c(F)c1)Nc1ccccc1,11,-1.37
CN(C(=O)c1ccc2c(c1)OCCCO2)[C@H]1CCS(=O)(=O)C1,4,-0.71
COc1ccc(Cl)cc1N1C(=O)[C@@H]2CCCN2[C@H]1c1ccccc1F,-16,2.08
Cc1ccc2c(Nc3cccc(Cl)c3)c(C(=O)N3CCCCCC3)cnc2n1,-6,1
CN(C)CCN(CCS(=O)(=O)c1ccccc1)Cc1cccnc1,7,-0.92
CCNC(=O)CN(CC)C(=O)C1CCC(C(=O)OC)CC1 (stereo not given),-30,2.97
CCN1C[C@@H](CN(C)S(=O)(=O)c2cc(-c3cc(C(F)(F)F)[nH]n3)oc2C)CC1=O,-6,0.88
Cc1ccc(Cn2c(=O)c(C(=O)NCc3ccccn3)nn(-c3ccc(C)c(C)c3)c2=O)cc1,-19,1.72
O=C(c1ccccc1)c1ccc2c(c1)N=Cc1c([nH]c(=O)n(-c3ccccc3)c1=O)N2,-8,1.57
CCCNC(=O)C1CCN(c2c(-n3c(C)ccc3C)c(C)nn2-c2ccccc2)CC1,7,-1.22
Cc1nnsc1C(=O)NCCn1cc(-c2ccoc2)cn1,21,-2.65
Cc1cc(C)c2[nH]c(C(=O)N3CCC[C@H]3CO)c(C)c2c1,-5,0.8
Cc1ccc2nc3c(n2c1)[C@@H](c1cnc(N2CCCC2)nc1)CC(=O)NC3,17,-2.13
CCCCc1c(O)nc(N2CCc3ccccc3C2)[nH]c1=O,6,-1.01
CCCCc1nc(CN2C(=O)C[C@](C)(CC(C)C)C2=O)no1,-2,0.2
CCc1cc(CN(C)Cc2ccc(CO)o2)on1,-4,0.59
CCOC(=O)[C@H]1CCCN(C(=O)c2coc(CN(Cc3ccc4c(c3)OCO4)Cc3cc(C)ccc3C)n2)C1,-5,0.75
